Measurements as given in a collection of fitness landscapes (doi:10.1126/science.1257360).
Some of the results follow.

B1: PhoQ; a variant is named by its letters at X, in order, P23837 (parent)
chain: MKKLLRLFFPLSLRVRFLLATAAVVLVLSLAYGMVALIGYSVSFDKTTFRLLRGESNLFYTLAKWENNKLHVELPENIDKQSPTMTLIYDENGQLLWAQRDVPWLMKMIQPDWLKSNGFHEIEADVNDTSLLLSGDHSIQQQLQEVREDDDDAEMTHSVAVNVYPATSRMPKLTIVVVDTIPVELKSSYMVWSWFIYVLSANLLLVIPLLWVAAWWSLRPIEALAKEVRELEEHNRELLNPATTRELTSLVRNLNRLLKSERERYDKYRTTLTDLTHSLKTPLXXLQXXLRSLRSEKMSVSDAEPVMLEQISRISQQIGYYLHRASMRGGTLLSRELHPVAPLLDNLTSALNKVYQRKGVNISLDISPEISFVGEQNDFVEVMGNVLDNACKYCLEFVEISARQTDEHLYIVVEDDGPGIPLSKREVIFDRGQRVDTLRPGQGVGLAVAREITEQYEGKIVAGESMLGGARMEVIFGRQHSAPKDE

Variants of: B1
Experiment: enrichment ratio after two sorts for PhoP signalling (ratio (wild type AVST 3.29)); higher = more functional
Settings: with PhoP (E. coli)

| Variant | enrichment ratio |
| --- | --- |
| NMDM | ≤ 0.25 |
| RQDC | ≤ 0.25 |
| SHDW | ≤ 0.25 |
| VGRC | ≤ 0.25 |
| ICNA | ≤ 0.25 |
| ERVD | ≤ 0.25 |
| EHRC | ≤ 0.25 |
| CVSM | ≤ 0.25 |
| LFQV | ≤ 0.25 |
| YFPR | ≤ 0.25 |
| SAIN | 11.8 |
| PYAW | ≤ 0.25 |
| GRPE | ≤ 0.25 |
| YANR | ≤ 0.25 |
| TRGN | ≤ 0.25 |
| WHQL | ≤ 0.25 |
| SMKS | ≤ 0.25 |
| YEMD | ≤ 0.25 |
| PRSK | ≤ 0.25 |
| MACS | ≤ 0.25 |
| FRLV | ≤ 0.25 |
| DLVE | ≤ 0.25 |
| STTE | 1.13 |
| FAGT | ≤ 0.25 |

| Variant | enrichment ratio |
| --- | --- |
| NMDC | ≤ 0.25 |
| KYVL | ≤ 0.25 |
| VMQD | ≤ 0.25 |
| SPHL | ≤ 0.25 |
| HRYM | ≤ 0.25 |
| PDAH | ≤ 0.25 |
| SNDE | ≤ 0.25 |
| EYFM | ≤ 0.25 |
| EFKP | ≤ 0.25 |
| LHHH | ≤ 0.25 |
| FDPV | ≤ 0.25 |
| LRYS | ≤ 0.25 |
| VYLQ | ≤ 0.25 |
| LNKK | ≤ 0.25 |
| FGGW | ≤ 0.25 |
| DGHW | ≤ 0.25 |
| CLMI | ≤ 0.25 |
| RPII | ≤ 0.25 |
| LKHH | ≤ 0.25 |
| QYYM | ≤ 0.25 |
| FFWQ | ≤ 0.25 |
| EICT | ≤ 0.25 |
| MTID | ≤ 0.25 |
| RDTD | ≤ 0.25 |

| Variant | enrichment ratio |
| --- | --- |
| IKVQ | ≤ 0.25 |
| VTNP | 0.491 |
| ICIC | ≤ 0.25 |
| SLRP | ≤ 0.25 |
| PYDA | ≤ 0.25 |
| NHGW | ≤ 0.25 |
| PLIA | ≤ 0.25 |
| SVRW | ≤ 0.25 |
| ETAW | ≤ 0.25 |
| IPEM | ≤ 0.25 |
| KNTD | ≤ 0.25 |
| IIWL | ≤ 0.25 |
| PMRW | ≤ 0.25 |
| LWGI | ≤ 0.25 |
| TVHK | ≤ 0.25 |
| EPFN | ≤ 0.25 |
| MNHW | ≤ 0.25 |
| RVML | ≤ 0.25 |
| RKWW | ≤ 0.25 |
| WSDD | ≤ 0.25 |
| DNRH | ≤ 0.25 |
| QTLN | ≤ 0.25 |
| IRFF | 0.314 |
| FYWY | ≤ 0.25 |

| Variant | enrichment ratio |
| --- | --- |
| YITD | ≤ 0.25 |
| MSVV | 3.96 |
| MVLD | ≤ 0.25 |
| GHFL | ≤ 0.25 |
| RWRG | ≤ 0.25 |
| SCYT | 0.513 |
| LPHR | ≤ 0.25 |
| PRRN | ≤ 0.25 |
| YWAD | ≤ 0.25 |
| IQTN | ≤ 0.25 |
| YMCY | ≤ 0.25 |
| MTYV | 6.07 |
| TLPE | ≤ 0.25 |
| RCDV | ≤ 0.25 |
| WSMH | ≤ 0.25 |
| YEEV | ≤ 0.25 |
| ANDY | ≤ 0.25 |
| KCAA | ≤ 0.25 |
| MLCM | 6.08 |
| NSWT | ≤ 0.25 |
| SRLQ | 0.442 |
| HISI | ≤ 0.25 |
| KCNE | ≤ 0.25 |
| FIHI | ≤ 0.25 |

| Variant | enrichment ratio |
| --- | --- |
| HSWM | ≤ 0.25 |
| HVMH | ≤ 0.25 |
| TINH | 34.4 |
| MKFS | ≤ 0.25 |
| RNSH | ≤ 0.25 |
| LMRM | ≤ 0.25 |
| VHNI | ≤ 0.25 |
| DWTP | ≤ 0.25 |
| EVKY | ≤ 0.25 |
| MFGR | ≤ 0.25 |
| QAGT | 2.53 |
| KDYG | ≤ 0.25 |
| GWDR | ≤ 0.25 |
| GETC | 3.51 |
| TAQF | 14 |
| MSNA | ≤ 0.25 |
| YTAS | ≤ 0.25 |
| RINP | ≤ 0.25 |
| MCRW | ≤ 0.25 |
| EEEV | ≤ 0.25 |
| DYMP | ≤ 0.25 |
| SKSS | 2.49 |
| KHML | ≤ 0.25 |
| GTQL | ≤ 0.25 |

| Variant | enrichment ratio |
| --- | --- |
| LDFP | ≤ 0.25 |
| RTSA | ≤ 0.25 |
| HTST | ≤ 0.25 |
| PSMS | ≤ 0.25 |
| HCPC | ≤ 0.25 |
| LFWS | ≤ 0.25 |
| PFSP | ≤ 0.25 |
| VRLM | ≤ 0.25 |
| YCQV | ≤ 0.25 |
| GCGI | ≤ 0.25 |
| FNAK | ≤ 0.25 |
| VYYG | ≤ 0.25 |
| PRCG | ≤ 0.25 |
| LKGV | ≤ 0.25 |
| HHGL | 1.38 |
| KYYI | ≤ 0.25 |
| IPNE | ≤ 0.25 |
| FQLH | 4.07 |
| PFRY | ≤ 0.25 |
| WFLR | ≤ 0.25 |
| SCTA | 12.7 |
| DWHY | ≤ 0.25 |
| SSRH | ≤ 0.25 |
| HNDF | ≤ 0.25 |

| Variant | enrichment ratio |
| --- | --- |
| KMLV | ≤ 0.25 |
| YSIK | ≤ 0.25 |
| NKYL | ≤ 0.25 |
| EPPD | ≤ 0.25 |
| ENNQ | ≤ 0.25 |
| VFHR | ≤ 0.25 |
| FIMC | ≤ 0.25 |
| MPKP | ≤ 0.25 |
| DARC | ≤ 0.25 |
| TIPH | ≤ 0.25 |
| RNHV | ≤ 0.25 |
| QVFN | ≤ 0.25 |
| TTLK | 5.12 |
| TRRW | ≤ 0.25 |
| WRHP | ≤ 0.25 |
| ANYE | ≤ 0.25 |
| YKHN | ≤ 0.25 |
| SPPS | ≤ 0.25 |
| GICW | 3.95 |
| TRWQ | ≤ 0.25 |
| VHQR | ≤ 0.25 |
| CCAN | ≤ 0.25 |
| WYMH | ≤ 0.25 |
| TDNG | 4.17 |

| Variant | enrichment ratio |
| --- | --- |
| VEMG | 6.39 |
| RQIM | ≤ 0.25 |
| EEFI | ≤ 0.25 |
| TDEA | ≤ 0.25 |
| IRQG | ≤ 0.25 |
| EVID | ≤ 0.25 |
| MTRH | ≤ 0.25 |
| YPEN | ≤ 0.25 |
| TTHA | 2.81 |
| PPMM | ≤ 0.25 |
| KRNH | ≤ 0.25 |
| PLDQ | ≤ 0.25 |
| GRVY | ≤ 0.25 |
| DVCA | ≤ 0.25 |
| PYKT | ≤ 0.25 |
| WMNG | ≤ 0.25 |
| DTCR | ≤ 0.25 |
| AHAR | ≤ 0.25 |
| AKHW | ≤ 0.25 |
| LCRH | ≤ 0.25 |
| MIRD | ≤ 0.25 |
| LGCK | ≤ 0.25 |
| HVPR | ≤ 0.25 |
| LQPG | ≤ 0.25 |

| Variant | enrichment ratio |
| --- | --- |
| QIMG | ≤ 0.25 |
| MKAP | ≤ 0.25 |
| VMIV | ≤ 0.25 |
| YDHN | ≤ 0.25 |
| PWAF | ≤ 0.25 |
| VMSD | ≤ 0.25 |
| YDFT | ≤ 0.25 |
| KCRP | ≤ 0.25 |
| KYIK | ≤ 0.25 |
| TEPK | ≤ 0.25 |
| GTRT | ≤ 0.25 |
| LYDP | ≤ 0.25 |
| SMDV | ≤ 0.25 |
| PRES | ≤ 0.25 |
| VRTV | ≤ 0.25 |
| SHMF | 8.93 |
| RCPP | ≤ 0.25 |
| MFYC | ≤ 0.25 |
| VYSR | ≤ 0.25 |
| KAMN | ≤ 0.25 |
| HQFA | ≤ 0.25 |
| HTDI | ≤ 0.25 |
| MCTL | 10.9 |
| AVAS | 4.33 |

| Variant | enrichment ratio |
| --- | --- |
| VFAL | ≤ 0.25 |
| YMWE | ≤ 0.25 |
| HIWI | ≤ 0.25 |
| KYNP | ≤ 0.25 |
| NRKP | ≤ 0.25 |
| PIHS | ≤ 0.25 |
| LPKM | ≤ 0.25 |
| RKKL | ≤ 0.25 |
| NGFW | ≤ 0.25 |
| RIRF | ≤ 0.25 |
| QMVK | ≤ 0.25 |
| RYSK | ≤ 0.25 |
| ILYA | ≤ 0.25 |
| PFFA | ≤ 0.25 |
| IFQY | ≤ 0.25 |
| YAQV | ≤ 0.25 |
| VYTA | ≤ 0.25 |
| HVRT | ≤ 0.25 |
| WGYG | ≤ 0.25 |
| TFTK | ≤ 0.25 |
| GRYY | ≤ 0.25 |
| PLSW | ≤ 0.25 |
| WLSM | ≤ 0.25 |
| EGGW | ≤ 0.25 |

| Variant | enrichment ratio |
| --- | --- |
| WCVR | ≤ 0.25 |
| FKMH | ≤ 0.25 |
| YETN | ≤ 0.25 |
| MPMV | ≤ 0.25 |
| HSLT | ≤ 0.25 |
| FIMR | ≤ 0.25 |
| KYEK | ≤ 0.25 |
| KNCA | ≤ 0.25 |
| LMGF | ≤ 0.25 |
| ASLN | 9.05 |
| MYKE | ≤ 0.25 |
| YRQI | ≤ 0.25 |
| LLTH | ≤ 0.25 |
| YDYW | ≤ 0.25 |
| RRGF | ≤ 0.25 |
| IHDN | ≤ 0.25 |
| AANM | ≤ 0.25 |
| YPYI | ≤ 0.25 |
| RYFQ | ≤ 0.25 |
| RILL | ≤ 0.25 |
| QNGR | ≤ 0.25 |
| HHDP | ≤ 0.25 |
| TRLD | 5.48 |
| FFFN | ≤ 0.25 |

| Variant | enrichment ratio |
| --- | --- |
| PMTD | ≤ 0.25 |
| VKDC | ≤ 0.25 |
| EIGK | ≤ 0.25 |
| SHPY | ≤ 0.25 |
| RLTH | ≤ 0.25 |
| GKYK | ≤ 0.25 |
| QFKE | ≤ 0.25 |
| MAFR | ≤ 0.25 |
| GIWT | ≤ 0.25 |
| RSKW | ≤ 0.25 |
| WGDH | ≤ 0.25 |
| LYQY | ≤ 0.25 |
| KMPP | ≤ 0.25 |
| TDLN | 14.9 |
| YRQG | ≤ 0.25 |
| FNIE | ≤ 0.25 |
| FHGE | ≤ 0.25 |
| VIMP | ≤ 0.25 |
| WEVQ | ≤ 0.25 |
| WIRT | ≤ 0.25 |
| DMCA | ≤ 0.25 |
| VHQM | ≤ 0.25 |
| WPMT | ≤ 0.25 |
| WTDR | ≤ 0.25 |

| Variant | enrichment ratio |
| --- | --- |
| LGEN | ≤ 0.25 |
| DQFL | ≤ 0.25 |
| VITA | ≤ 0.25 |
| PQQL | 1.38 |
| NLII | ≤ 0.25 |
| GEHT | ≤ 0.25 |
| NVCI | ≤ 0.25 |
| WVRK | ≤ 0.25 |
| RKLG | ≤ 0.25 |
| QNQG | ≤ 0.25 |
| GRRK | ≤ 0.25 |
| HMNG | ≤ 0.25 |
| THHA | ≤ 0.25 |
| KPGI | ≤ 0.25 |
| TRIV | ≤ 0.25 |
| LRNA | ≤ 0.25 |
| HPIL | ≤ 0.25 |
| PVGI | ≤ 0.25 |
